Assay results published in the supplement of paper PMC11417369.
The list shows a part of the results.

Tested on: PfAP2-HC AP2 domain (GST-tagged)
Assay: gcPBM binding intensity (ln(normalized median fluorescence intensity)); higher = stronger DNA binding
Outline: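 GST-tagged P. falciparum DNA-binding domains, expressed in E. coli (about 25 μg on average), were applied for 1 h to an Agilent 4 × 180k array of primer-extended double-stranded 36-bp intergenic genomic probes plus negative controls. The binding buffer was 1× PBS with 1% milk, 0.2 mg/ml BSA, 0.5% salmon testes DNA and 0.03% Triton X-100. Bound protein was detected with Alexa488 anti-GST antibody and scanned at 488 nm. Binding intensity is the highest Masliner-normalised natural-log median intensity across replicate spots of either probe orientation.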

Sequence	gcPBM binding intensity (ln)
AAATTACTTTCACAGTGTACTTGGAAAAAAAAAAGA [XGTACX_site1046]	9.57
AGATATAATAAATATACACACATATATATATATATA [CACACA_site962]	9.56
ATATATATTTTTATTTGTACATAATTTTTTTTGTGA [XGTACX_site6378]	9.62
TTTTTTTTTTTTTGCACACACATATATAGATATATA [CACACA_site7784]	9.95
ATAAAATTGTTTAAATGTACATATGAACAGTCAGTA [XGTACX_site5140]	9.73
ATATATGTAATAAATAGTACACACACACATATATAT [XGTACX_site2817]	10.4
ATATATATTTAAATGTGTACTCATTTATTTTATGTC [XGTACX_site4984]	9.78
ATAGTATAACAGCAATGTACACATATTTGTGTATAT [XGTACX_site7899]	10
TATATATATAAACACACACACACATATATATATATT [CACACA_site8814]	10.5
TTTTTTTTTTTTGTCACACATATATTTGTATTTATA [CACACA_site5234]	9.78
TGATATTTATAATAAATATTATAATAAAATCAAACA [XGTACX_negctrl_site219]	9.6
ATATATATAATATAATGTACATATATTTTATTTTTA [XGTACX_site3819]	9.58
TATATACATTTATGTACACACACATATATGTATATT [CACACA_site8971]	9.96
ATATATTAATTTAATTGTACGAATAAAAAAAAAAAA [XGTACX_site223]	9.53
AAAGCACCCAAGAATACACACAAATATTATAAAAAA [CACACA_site111]	9.99
TAATGTATTATATTTAGTACATATAAAAATAATTTT [XGTACX_site6886]	9.52
ACGTATTAGATAAATACACACACAAGCATATATTTT [CACACA_site9135]	10.1
TAATAAATGGCTAGTTGTACAGAAATATAAATATTA [XGTACX_site4579]	9.51
AGATTCAAAAATAAAACATGCAAAAATAAAACGTGC [TGCATGCA_site501]	9.76

Sequence	gcPBM binding intensity (ln)
ATATATATTGTACTAGTGCATATATATACATATATT	9.68
ATAAATAAAAACACAAAACAAAACAAAACAAAACAA [CACACA_negctrl_site1257]	9.61
TTTCATCTATATGAAACACACAAAGGAAAAAAAATT [CACACA_site7869]	9.62
TAATACCATTGTCATGCATGCACATTATTACTCTAA [TGCATGCA_site160]	9.82
TCGTAATTTTTTTTTATATATTAGGAATTTATAAAA [XGTACX_negctrl_site409]	9.13
ATATTATATTTCTTTTGTACATATTATATAATATAT [XGTACX_site7198]	10.1
TTTTTTTTGTGTATTTGTACATAATATATATATATA [XGTACX_site7092]	9.74
AAAATTGTTATTTTATGTACTTATATTTATTTATTT [XGTACX_site3478]	9.84
AAAAGGTATGTTATACATAGATATGCACATATATGT [TGCATGCA_negctrl_site96]	9.77
GTAGGATTTTCTTTTGTGCGCAATATAAAAAGAAAA [GTGCAC_site9514]	9.53
ATTAATATAAAAAGGTAAATGGATGTAATATATATA [XGTACX_negctrl_site2]	9.73
TTTTTTTTGATAAGTTGTACAATGATATATATCCCT [XGTACX_site3560]	9.63
ATAGTTTAATTTATATGTACATATAATATTGATTTG [XGTACX_site7520]	9.7
TATATTTTATATTGGTGTACAATTTTTTTTTTTTTT [XGTACX_site4291]	9.54
ATAAATGACAGACACACACACAAAAAAAAAAAACAA [CACACA_site2626]	11.5
ACCCTATCTGTAACTACACACCGCATATTGTTTACT [CACACA_site5661]	10.2
AAATATTTATATGTTACACACTGTTTATAACTTTCT [CACACA_site6752]	9.9
CTTCTGTAATTATCACGTACATATAATAATTAAAAT [XGTACX_site8973]	9.52
TTTTTATCTTTGCTGTGTACATAAATAAAAATAACT [XGTACX_site7625]	9.51

Sequence	gcPBM binding intensity (ln)
CCTTTTTTTTTTTTATGTACTAAAATAAAATTAGAA [XGTACX_site5956]	9.35
ATAACAACCCAATGTTGTACATTTAAATATAACGTA [XGTACX_site7114]	9.66
TTCTAAAATTATATAGTGCAATTATATTAATTTTTC	9.51
TATAACATATGACACACACACATACATACACAAAAA [CACACA_site6935]	10.5
TATATATATTTATGTACACACACACCGATAAATAAA [CACACA_site4404]	10.6
ACAATTTATATTATATGTACTTAAAAAGTTCGTAAA [XGTACX_site6421]	9.47
TTTTATACATAAATATGTACGTATATATAATGAATT [XGTACX_site1337]	9.53
GCCTCATCGTAGCAGTGTACGTTTTTTTTTTTTTTT [XGTACX_site8648]	9.8
TTGTGTTTGAAAAAATGTACATGTGTCTTACAACAA [XGTACX_site8371]	9.59
TTATACAGATATTTAACACACATTTTATAAAGTGCC [CACACA_site4851]	9.65
TTACGCGCTTATTACACACACATACAAATAAGGATT [CACACA_site3486]	9.94
AAAAATAAAAAAAATACATGCAATGAAACATTTATT [TGCATGCA_site263]	9.59
ATTTGTATTGTATATGCACACATAGAACACTTTTTT [CACACA_site9373]	9.95
AACAAAATAAAAAAAACATGCAAGAATTCTTATATG [TGCATGCA_site714]	9.84
AAACAAAAAAGAAAAACAATGAGATAAAGAAGAGAA [CACACA_negctrl_site804]	9.82
AAAAGAAAAATATTCACACATATAAATAATATATAA [CACACA_site4201]	9.57
TTTAATTATTTATTTTGTACATATATTATATATATA [XGTACX_site5760]	9.68
ATTTTTATATATATCTGTACTAAAAAAAAAAAAAAA [XGTACX_site5258]	9.17
AGAAGTAAAAAAATAGCACACACACTAATACCAACA [CACACA_site8354]	10.5
